# Measured values from publication PMC4336329 (PLoS ONE, 2015).
# Screen size: about 310,000 compounds; about 2,200 (0.71%) showed an effect of 50% or more. The effect is printed as a negative number. This is one part of the list.
# Molecular target: human ether-à-go-go-related gene (hERG) potassium channel (human, UniProt Q12809)
# Assay: primary screen, population patch clamp on CHO cells stably expressing hERG
# Sequence of human ether-à-go-go-related gene (hERG) potassium channel (Q12809 whole entry, looked up): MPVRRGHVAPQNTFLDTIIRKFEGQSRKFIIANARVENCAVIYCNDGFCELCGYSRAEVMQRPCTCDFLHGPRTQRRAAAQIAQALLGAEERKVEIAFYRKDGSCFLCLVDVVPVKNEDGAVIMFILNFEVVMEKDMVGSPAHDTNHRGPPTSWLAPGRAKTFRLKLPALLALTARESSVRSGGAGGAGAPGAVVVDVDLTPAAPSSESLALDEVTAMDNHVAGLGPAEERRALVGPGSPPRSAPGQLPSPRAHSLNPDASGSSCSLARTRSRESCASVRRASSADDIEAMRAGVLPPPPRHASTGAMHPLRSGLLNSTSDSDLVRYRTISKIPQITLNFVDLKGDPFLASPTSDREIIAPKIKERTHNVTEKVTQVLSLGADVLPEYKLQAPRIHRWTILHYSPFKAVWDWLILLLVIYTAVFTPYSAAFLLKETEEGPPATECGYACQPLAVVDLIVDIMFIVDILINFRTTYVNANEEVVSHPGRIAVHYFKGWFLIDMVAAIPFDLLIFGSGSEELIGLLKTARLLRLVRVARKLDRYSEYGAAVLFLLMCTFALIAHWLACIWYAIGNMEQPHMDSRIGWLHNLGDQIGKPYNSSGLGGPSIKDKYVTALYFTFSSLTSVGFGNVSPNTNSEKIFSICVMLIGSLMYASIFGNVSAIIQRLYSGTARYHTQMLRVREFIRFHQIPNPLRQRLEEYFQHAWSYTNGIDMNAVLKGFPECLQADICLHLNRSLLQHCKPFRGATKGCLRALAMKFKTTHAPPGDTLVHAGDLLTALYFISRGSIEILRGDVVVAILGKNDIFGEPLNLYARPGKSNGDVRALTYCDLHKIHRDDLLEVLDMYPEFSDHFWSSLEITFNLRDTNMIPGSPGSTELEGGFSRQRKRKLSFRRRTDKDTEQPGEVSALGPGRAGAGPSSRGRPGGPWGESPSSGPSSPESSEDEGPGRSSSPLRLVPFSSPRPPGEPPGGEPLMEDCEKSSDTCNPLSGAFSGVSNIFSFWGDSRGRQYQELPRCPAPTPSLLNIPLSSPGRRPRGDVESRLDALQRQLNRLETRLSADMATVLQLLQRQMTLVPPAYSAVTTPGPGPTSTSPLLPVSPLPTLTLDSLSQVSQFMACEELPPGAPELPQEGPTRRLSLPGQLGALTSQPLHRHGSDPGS
row,SMILES,"hERG current change (%, negative = inhibition) at 1uM [%]"
1,Oc1ccc(Br)cc1-c1cc(-c2ccc(Cl)cc2)n[nH]1,11.6
2,Cc1ccc(S(=O)(=O)C2(C(=O)O)CCCC2)cc1C,10.1
3,COc1cc(SC)ccc1C(=O)OCC(=O)N1CCN(C(C)=O)CC1,-4.08
4,COc1cc(OC)c(NS(=O)(=O)c2cc(Br)cnc2N)cc1Cl,14.5
5,COc1ccc(NC2CCCN(C(=O)CCN3CCOCC3)C2)cc1 (stereo not shown),17.4
6,CCOc1ccc(N2C(=O)/C(=C\c3ccccc3OC)S(=O)(=O)C2c2cccc([N+](=O)[O-])c2)cc1 (stereo not shown),7.37
7,Cn1c(C(=O)N2CCN(c3ccc(F)cc3)CC2)cc2ccccc21,10.2
8,CCS(=O)(=O)c1nc(S(=O)(=O)c2ccc(C)cc2)c(N2CCN(C)CC2)s1,15.3
9,O=C(C1=C(O)C(=O)N(CC2CCCO2)C1c1ccccc1F)c1ccco1 (stereo not shown),12.8
10,O=C(Nc1ccc(Br)cn1)c1ccc([N+](=O)[O-])cc1Cl,13.6
11,COCCn1c(SCC(=O)NC(=O)NCc2ccccc2)nc2ccccc21,3.8
12,C=CCN1C(=O)c2ccccc2Sc2ccc(C(=O)NCCC)cc21,3.36
13,Nc1cccc2c1C(=O)N(C(=O)/C=C/c1ccc(F)cc1)C2=O,9.8
14,CSc1ccc(-c2nc(CSCC(=O)NCCCN3CCOCC3)c(C)o2)cc1,2.68
15,CCOCCCN(C)C1CCN(C(=O)c2oc3ccccc3c2NC(=O)c2ccc([N+](=O)[O-])cc2)CC1,-85.2
16,CC(C)COc1ccc(C(=O)OCC(=O)N(C)CC(=O)Nc2ccc(F)cc2)cc1,7.02
17,CC1(C)CC(=O)c2c(nc(SCC(=O)Nc3nsc(-c4ccccc4)n3)c(C#N)c2-c2ccccc2)C1,6.13
18,COCCCn1c(SCC(=O)NC2CCCC2)nnc1-c1ccncc1,11.5
19,CCOC(=O)c1nn(-c2ccc(Cl)cc2)cc1O,-5.52
20,O=C(COC(=O)CCOc1ccccc1)NCc1ccco1,6.28
21,COc1ccc(OCCNC(=O)/C=C/c2ccccc2)cc1,0.454
22,O=C(CN1C(=O)NC2(CCCCC2)C1=O)N(Cc1ccco1)Cc1cccs1,-3.33
23,Cc1ccc(S(=O)(=O)N2CCN(C(=O)N3CCOCC3)CC2)c(C)c1,2.62
24,CCOC(=O)C1CCN(c2cc(=O)n(Cc3ccc(F)cc3)c(=O)[nH]2)CC1,5.37
25,C1CCCC(N2CCNCC2)CC1.Cl,11.1
26,COc1cccc(CNC(=O)CCC2CCCN(Cc3ccc(OC(F)F)cc3)C2)c1 (stereo not shown),-80.1
27,CNC(=O)c1cccc(NC(=O)c2cc(-c3ccccc3)nc3c2cnn3C(C)C)c1,9.18
28,O=C(c1cc(C2CC2)nn1-c1ccccc1)N1CCN(S(=O)(=O)c2cccc(F)c2)CC1,-1.87

row,SMILES,"hERG current change (%, negative = inhibition) at 1uM [%]"
1,COC(=O)c1ccccc1NC(=O)c1cc[n+](C)cc1,13.2
2,COC(=O)c1cn(C(=O)c2ccc(C)c(C)c2)c2ccccc12,8.65
3,COc1ccc(O)c(CN2CCCC(N3CCN(c4ccccc4OC)CC3)C2)c1 (stereo not shown),6.44
4,Clc1ccc(-c2nnc(-c3ccccc3)c(-c3ccccc3)n2)cc1,10.5
5,Cc1cnc([N+](=O)[O-])n1CCOC(=O)NC(=O)c1ccc(C(F)(F)F)cc1,-12.2
6,Cc1cc(Cl)ccc1NNC(=O)CCc1ccccc1,10.5
7,CCCC(C(=O)NCc1ccco1)N(C(=O)CNS(=O)(=O)c1ccccc1)c1ccccc1OC (stereo not shown),-6.7
8,Cc1ccc(N(C)C(=O)c2cnn(-c3ccccc3)c2C)c(C)c1,10
9,Oc1c(Cl)cc(Cl)cc1C1Nc2ccccc2-n2cccc21 (stereo not shown),12.6
10,COc1cccc(CNC(=O)CCNS(=O)(=O)c2cccc3nonc23)c1,16
11,CC(C)(C)C(C(=O)n1cccc1C#N)c1ccccc1 (stereo not shown),12.9
12,COCCCNC(=O)C1CCCN(S(=O)(=O)c2cccc3nsnc23)C1 (stereo not shown),6.21
13,O=C(CSc1nnc(-c2ccc3c(c2)OCO3)o1)Nc1ncc(Cl)cc1Cl,3.82
14,Cc1nc2ncnn2c(N2CCN(c3cccc(C(F)(F)F)c3)CC2)c1C,-15.6
15,COc1ccc(NC(=O)COc2cccc(-n3cnnn3)c2)cc1Cl,21.9
16,CN(CCOc1ccc(Cl)cc1)C(=O)c1cc([N+](=O)[O-])ccc1N1CCOCC1,-19.4
17,COc1cccc(OC)c1C(=O)OCC(=O)NC1CCCCCC1,7.12
18,COc1cccc(C2C(C(=O)NCc3ccccc3)=C(C)Nc3ncnn32)c1 (stereo not shown),-6.64
19,COc1ccc(OC)c(-c2csc(NC(=O)CSCc3c(C)noc3C)n2)c1,0.673
20,CC12CCC(=O)N1C(C(=O)Nc1nnc(SCc3ccccc3)s1)CS2 (stereo not shown),14.2
21,Cc1cc(C)n(C(=O)c2ccncc2)n1,16.7
22,Fc1ccc(NC2=NCCS2)cc1Cl,1.2
23,O=C(c1ccc(OC2CCN(CCc3ccccc3)CC2)cc1)N1CCCC1,-1.63
24,COc1ccc(-n2c(Cn3c(=O)sc4ccccc43)nnc2SCC(=O)N2CCCC2)cc1,2.06
25,CCOC(=O)c1cc(CC)sc1NC(=O)C(c1ccccc1)c1ccccc1,11.9
26,C/C(=C\C(=O)c1cccnc1)Nc1ccc(C)c(C)c1,-4.61
27,CC(=O)Nc1ccc(SC[C@H](Cc2ccccc2)N2CC[C@@H](C(C)(C)C)CCC2=O)cc1,15
